Experimental data: PubChem BioAssay (NCATS)
The shares of active, inactive and inconclusive entries below differ from those in the screen. Potencies of inconclusive entries are doubtful fits and often do not repeat. Active and inactive are the calls of the source. The call rests on the fitted dose curve; in most records, active means well fitted curve in the direction sought with a large enough effect; inconclusive means small, poorly fitted or top-dose-only effect, or another doubt; inactive means no such curve, though single readings can be large; an effect the other way counts as inactive or inconclusive.

The molecules below were run against Rap guanine nucleotide exchange factor 3 (Homo sapiens) (UniProt O95398) (assay: Confirmatory qHTS for agonist of cAMP-regulated guanine nucleotide exchange factor 3 (EPAC1) (AID 1645881; further: nearly all actives have a fitted effect of over 75% in size;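 on activation: EPAC1 catalysed release of BODIPY-GDP from Rap1B seen as fluorescence loss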)). Conditions: EPAC1 Rap1B BODIPY-GDP exchange fluorescence; activation: at 154 µM (top of the series), 100% = cAMP control response.
Sequence of UniProt O95398 (O95398 whole entry, looked up): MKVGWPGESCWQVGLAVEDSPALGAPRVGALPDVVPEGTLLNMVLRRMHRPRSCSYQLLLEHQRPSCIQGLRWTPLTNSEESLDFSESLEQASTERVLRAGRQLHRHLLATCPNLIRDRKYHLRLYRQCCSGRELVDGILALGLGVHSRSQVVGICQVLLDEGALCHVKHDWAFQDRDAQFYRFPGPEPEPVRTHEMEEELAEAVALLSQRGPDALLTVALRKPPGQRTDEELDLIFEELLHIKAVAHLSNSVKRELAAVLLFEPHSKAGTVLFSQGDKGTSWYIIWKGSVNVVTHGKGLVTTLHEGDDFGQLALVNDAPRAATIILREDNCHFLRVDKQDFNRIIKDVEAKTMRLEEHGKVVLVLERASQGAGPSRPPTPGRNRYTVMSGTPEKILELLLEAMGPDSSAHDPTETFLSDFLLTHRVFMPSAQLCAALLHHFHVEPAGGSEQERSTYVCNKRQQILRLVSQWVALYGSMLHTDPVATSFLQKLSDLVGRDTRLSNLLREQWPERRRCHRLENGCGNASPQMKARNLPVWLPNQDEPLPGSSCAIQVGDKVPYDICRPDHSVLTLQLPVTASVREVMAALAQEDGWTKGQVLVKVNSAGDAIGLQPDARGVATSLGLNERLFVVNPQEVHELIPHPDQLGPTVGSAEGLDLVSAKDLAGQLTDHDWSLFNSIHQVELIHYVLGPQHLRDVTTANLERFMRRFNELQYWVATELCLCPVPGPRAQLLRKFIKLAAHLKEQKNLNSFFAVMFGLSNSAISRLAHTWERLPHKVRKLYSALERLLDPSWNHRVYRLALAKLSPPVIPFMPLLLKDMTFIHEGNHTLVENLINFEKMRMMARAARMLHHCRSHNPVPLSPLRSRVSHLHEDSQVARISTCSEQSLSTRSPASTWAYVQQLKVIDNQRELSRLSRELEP
Potency means the concentration at half of the fitted maximal effect; tags describe the fitted curve by direction and shape.

Row | Compound | Potency | activation
1 | CCN(CC)c1ccc2cc(C(N)=O)c(=N)oc2c1 | inconclusive: 100 µM [activator, partial curve, poor fit] | –
2 | COC(=O)C1=CN(C(C)c2ccccc2)C=C(C(=O)OC)C1c1cc(OC)c(OC)c(OC)c1 (configuration not stated) | inconclusive: 56.2 µM [activator, partial curve, poor fit] | –
3 | COc1ccccc1C(=O)NNC(=O)CCCN1C(=O)/C(=C/c2cccs2)SC1=S | inconclusive: 44.7 µM [activator, partial curve, poor fit] | –
4 | N#CC(=Cc1ccc(-c2ccccc2)cc1)C(=O)c1ccccc1 | – | inactive: 10.9%
5 | CCc1ccccc1NC(=O)CCC(=O)N1CCN(C(C)=O)CC1 | – | inactive: -5.27%
6 | Cc1cc(OC(C)C(=O)NCCc2c[nH]c3ccccc23)c2c(C)cc(=O)oc2c1 (configuration not stated) | – | inactive: 22.8%
7 | Nc1ccc2cc3[nH]c4cc(N)ccc4c3nc2c1 | active: 100 µM | –
8 | CN(Cc1cccs1)c1nc(-c2cccnc2)nc2ccccc12 | inconclusive: 56.2 µM [activator, partial curve, poor fit] | –
9 | CNC(=O)N(C1=NCC(C)(C)S1)c1ccc(F)c(Cl)c1 | inconclusive: 79.4 µM [activator, partial curve, poor fit] | –
10 | CCOc1cc(/C=N/NC(=O)c2ccc(-c3csc(Nc4ccc(C)cc4)n3)cc2)ccc1OCC(=O)O | inconclusive: 79.4 µM [activator, partial curve] | –
11 | CN(C)c1ccc(C2C=C(c3ccc(Cl)cc3OC(F)F)Nc3ncnn32)cc1 (configuration not stated) | inconclusive: 112 µM [activator, partial curve, poor fit] | –
12 | Cc1csc(SCC(=O)NC23CC4CC(CC(C4)C2)C3)n1 | – | inactive: 7.31%
13 | CCOc1ccc(C(=O)CCc2nc3ccccc3s2)cc1 | inconclusive: 56.2 µM [activator, partial curve, poor fit] | –
14 | O=C(c1cccs1)N(Cc1cccnc1)c1nc2c(Cl)cccc2s1 | inconclusive: 141 µM [activator, partial curve, poor fit] | –
15 | COc1ccc(-c2ncccc2OC(=O)C23CC4CC(CC(C4)C2)C3)cc1OC | inconclusive: 89.1 µM [activator, partial curve] | –
16 | O=C(CSc1nc2ccccc2o1)NCc1ccc2c(c1)OCO2 | inconclusive: 141 µM [activator, partial curve, poor fit] | –
17 | CC(NC(=O)/C(C#N)=C/c1ccc(N2CCOCC2)cc1)c1ccccc1 (configuration not stated) | inconclusive: 126 µM [activator, single point] | –
18 | O=S(=O)(NCC(c1ccco1)N1CCc2ccccc21)c1ccccc1 (configuration not stated) | inconclusive: 56.2 µM [activator, partial curve, poor fit] | –
19 | CN1CCC/C1=C/C=C1\SC(=S)NC1=O | active: 89.1 µM | –
20 | CCOC(=O)C1CCN(C(c2cc(OC)c(OC)c(OC)c2)c2sc3nc(C)nn3c2O)CC1 (configuration not stated) | – | inactive: 2.88%
21 | Cc1csc2nc(CNS(=O)(=O)c3ccc4c(c3)CCCC4)cn12 | – | inactive: -7.74%
22 | O=C(NCc1ccco1)c1ccc(Cn2c(=S)[nH]c3ccccc3c2=O)cc1 | – | inconclusive: 20% [activator]
23 | CCOC(=O)C1CCCN(c2c(C(=O)c3ccccc3)cnc3ccc(OC)cc23)C1 (configuration not stated) | inconclusive: 56.2 µM [activator, partial curve, poor fit] | –
24 | COC(=O)c1cccc(F)c1C(=O)c1cccc2ccccc12 | – | inactive: 11.6%
25 | COc1ccc(NC(=O)C2=NN(c3ccccc3)C(=O)CC2)cn1 | – | inactive: 5.26%
26 | C[C@@H]1CN([C@@H](C)CO)S(=O)(=O)c2ccc(Br)cc2O[C@H]1CN(C)Cc1ccccc1F | – | inactive: 12.7%
27 | COc1cccc2c1C(=O)c1c(O)c3c(c(O)c1C2=O)CC(O)(C(=O)CO)CC3OC1CC(N(C)C)C(O)C(C)O1 (configuration not stated) | inconclusive: 89.1 µM [activator, partial curve, poor fit] | –

What follows are molecules tested against Rap guanine nucleotide exchange factor 3 (Homo sapiens) (UniProt O95398) (assay: Counterscreen qHTS for agonist of cAMP-regulated guanine nucleotide exchange factor 3 (EPAC1) (AID 1645889; further: nearly all actives have a fitted effect of over 40% in size; on activation: % of control where 0% means no effect)). Conditions: EPAC1 Rap1B-BODIPY-GDP exchange, fluorescence; activation: at 154 µM (top of the series) unless noted.
How it was run: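 Rap1B–BODIPY-GDP (250 nM) with 50 uM GDP; compounds pin-transferred to 9.74 nM–152 uM final (activator) or from 7.32 nM upwards (inhibitor). Fluorescence Ex/Em 480/540 nm read at 5 and 30 min, then after adding cAMP or buffer, at room temperature.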

Row | Compound | activation | Potency
28 | O=C(NN=Cc1c(O)ccc2ccccc12)c1ccncc1 | inconclusive: 71% [activator] [at 30.8 µM] | –
29 | COc1ccc(S(=O)(=O)Nc2c(C)nn(C)c2C)cc1Br | inactive: -0.349% | –
30 | CC(=O)Nc1ccc(NS(=O)(=O)c2cn(C)c(=O)n(C)c2=O)cc1 | – | inconclusive: 0.0089 µM [activator, full curve, poor fit]
31 | COc1cc2c(c(OC)c1OC)C(c1ccc(C)cc1)CC(=O)O2 (configuration not stated) | – | inconclusive: 0.01 µM [activator, full curve, poor fit]
32 | O=c1[nH]c2ccccc2nc1/C=C(\O)c1cccs1 | – | inconclusive: 12.6 µM [activator, partial curve, poor fit]
33 | COC(=O)c1ccc(CSc2ccc3nnc(-c4cccc(F)c4)n3n2)o1 | inactive: 0.6% [at 30.8 µM] | –
34 | Cc1ccc(Nc2cc(C)nc3c(C)ccc([N+](=O)[O-])c23)cc1 | inconclusive: 53.5% [activator] [at 30.8 µM] | –
35 | CCN(CC)c1ccc2cc(C(C)=O)c(=O)oc2c1 | – | active: 50.1 µM
36 | N=C1SC(c2ccccc2)C(=O)N1c1ncc(Cc2ccccc2Cl)s1 (configuration not stated) | – | inconclusive: 25.1 µM [activator, partial curve]
37 | CC(C)(CNC(=O)Cc1ccc(NS(=O)(=O)c2cccc(C(F)(F)F)c2)cc1)N1CCOCC1 | inconclusive: 32.3% [activator] [at 30.8 µM] | –
38 | O=C1OC(c2ccccc2)(c2ccccc2)c2ccccc21 | – | inconclusive: 0.891 µM [activator, partial curve, poor fit]
39 | CN1CCS/C1=C/C=C1\SC(=S)N(CC(=O)O)C1=O | – | active: 14.1 µM
40 | O=C(Cn1c(=O)n(-c2ccccc2)c(=O)c2c3c(sc21)CCC3)c1ccc(Br)cc1 | inactive: 27.7% | –
41 | CCN(CC)c1ccc2cc(C(N)=O)c(=N)oc2c1 | inconclusive: 65.6% [activator] [at 30.8 µM] | –
42 | COC(=O)C1=CN(C(C)c2ccccc2)C=C(C(=O)OC)C1c1cc(OC)c(OC)c(OC)c1 (configuration not stated) | – | inconclusive: 20 µM [activator, single point]
43 | COc1ccccc1C(=O)NNC(=O)CCCN1C(=O)/C(=C/c2cccs2)SC1=S | – | inconclusive: 10 µM [activator, partial curve]
44 | N#CC(=Cc1ccc(-c2ccccc2)cc1)C(=O)c1ccccc1 | – | inconclusive: 0.562 µM [activator, full curve, poor fit]
45 | CCc1ccccc1NC(=O)CCC(=O)N1CCN(C(C)=O)CC1 | – | inconclusive: 31.6 µM [activator, partial curve, poor fit]
46 | Cc1cc(OC(C)C(=O)NCCc2c[nH]c3ccccc23)c2c(C)cc(=O)oc2c1 (configuration not stated) | – | inconclusive: 0.891 µM [activator, full curve, poor fit]
47 | Nc1ccc2cc3[nH]c4cc(N)ccc4c3nc2c1 | – | active: 63.1 µM

Row | Compound | activation | Potency
48 | CN(Cc1cccs1)c1nc(-c2cccnc2)nc2ccccc12 | inactive: 51% [at 30.8 µM] | –
49 | CNC(=O)N(C1=NCC(C)(C)S1)c1ccc(F)c(Cl)c1 | inconclusive: 51.9% [activator] | –
50 | CCOc1cc(/C=N/NC(=O)c2ccc(-c3csc(Nc4ccc(C)cc4)n3)cc2)ccc1OCC(=O)O | inconclusive: 51.2% [activator] | –
51 | CN(C)c1ccc(C2C=C(c3ccc(Cl)cc3OC(F)F)Nc3ncnn32)cc1 (configuration not stated) | – | inconclusive: 20 µM [activator, single point]
52 | Cc1csc(SCC(=O)NC23CC4CC(CC(C4)C2)C3)n1 | inactive: 22.6% [at 30.8 µM] | –
53 | CCOc1ccc(C(=O)CCc2nc3ccccc3s2)cc1 | inconclusive: 60.8% [activator] [at 30.8 µM] | –
54 | O=C(c1cccs1)N(Cc1cccnc1)c1nc2c(Cl)cccc2s1 | – | inconclusive: 25.1 µM [activator, partial curve]
55 | COc1ccc(-c2ncccc2OC(=O)C23CC4CC(CC(C4)C2)C3)cc1OC | inconclusive: 62.8% [activator] [at 30.8 µM] | –
56 | O=C(CSc1nc2ccccc2o1)NCc1ccc2c(c1)OCO2 | – | inconclusive: 63.1 µM [activator, partial curve, poor fit]
57 | CC(NC(=O)/C(C#N)=C/c1ccc(N2CCOCC2)cc1)c1ccccc1 (configuration not stated) | – | inconclusive: 100 µM [activator, single point]
58 | O=S(=O)(NCC(c1ccco1)N1CCc2ccccc21)c1ccccc1 (configuration not stated) | inconclusive: 61.9% [activator] [at 30.8 µM] | –
59 | CN1CCC/C1=C/C=C1\SC(=S)NC1=O | – | active: 39.8 µM
60 | CCOC(=O)C1CCN(C(c2cc(OC)c(OC)c(OC)c2)c2sc3nc(C)nn3c2O)CC1 (configuration not stated) | inconclusive: 40.9% [activator] [at 30.8 µM] | –
61 | Cc1csc2nc(CNS(=O)(=O)c3ccc4c(c3)CCCC4)cn12 | inactive: -8.72% [at 30.8 µM] | –
62 | O=C(NCc1ccco1)c1ccc(Cn2c(=S)[nH]c3ccccc3c2=O)cc1 | inconclusive: 31.2% [activator] | –
63 | CCOC(=O)C1CCCN(c2c(C(=O)c3ccccc3)cnc3ccc(OC)cc23)C1 (configuration not stated) | – | inconclusive: 0.891 µM [activator, full curve, poor fit]
64 | COC(=O)c1cccc(F)c1C(=O)c1cccc2ccccc12 | – | inconclusive: 14.1 µM [activator, partial curve]
65 | COc1ccc(NC(=O)C2=NN(c3ccccc3)C(=O)CC2)cn1 | – | inconclusive: 63.1 µM [activator, partial curve, poor fit]
66 | C[C@@H]1CN([C@@H](C)CO)S(=O)(=O)c2ccc(Br)cc2O[C@H]1CN(C)Cc1ccccc1F | – | inconclusive: 20 µM [activator, partial curve, poor fit]
67 | COc1cccc2c1C(=O)c1c(O)c3c(c(O)c1C2=O)CC(O)(C(=O)CO)CC3OC1CC(N(C)C)C(O)C(C)O1 (configuration not stated) | – | inconclusive: 14.1 µM [activator, partial curve, poor fit]
